# Assay results as given in patent US20250163048A1 (Tango Therapeutics, Inc., priority 2022, published 2025).
# Where two headings read alike, the source gives them in different places.
# Tests used:
# [1] = system: HAP1 MTAP-deleted cell line; test: SDMA in-cell western assay, HAP1 MTAP-deleted; settings: for IC50 / IC90: Homo sapiens; for Hap1 MTAP intact/deleted ratio: IC50 ratio between HAP1 MTAP-intact and HAP1 MTAP-deleted cell line
# MTAP-deleted cell line = test: viability assay for the MTAP-deleted cell line; format: cell-based; settings: Homo sapiens, HAP1, viability assay
# [2] = system: HAP1 MTAP-intact cell line; test: SDMA in-cell western assay, HAP1 MTAP-intact; settings: Homo sapiens
# [3] = HAP1, read-out: Hap1 MTAP deleted IC50, SDMA in-cell western, HAP1 MTAP-deleted cell line
# [4] = HAP1, read-out: Hap1 MTAP deleted IC90, SDMA in-cell western, HAP1 MTAP-deleted cell line
# [5] = HAP1, read-out: Hap1 MTAP intact IC50, SDMA in-cell western, HAP1 MTAP-intact cell line
# [6] = HAP1, read-out: Hap1 MTAP deleted IC50, SDMA in-cell western assay, HAP1 MTAP-deleted cell line
# [7] = HAP1, read-out: Hap1 MTAP deleted IC90, SDMA in-cell western assay, HAP1 MTAP-deleted cell line
# [8] = HAP1, read-out: Hap1 MTAP intact IC50, SDMA in-cell western assay, HAP1 MTAP-intact cell line
"IC50 [1, 3] [µM]","IC90 [1, 4] [µM]","IC50 [2, 5] [µM]","IC50 [1, 6] [µM]","IC90 [1, 7] [µM]","IC50 [2, 8] [µM]",SMILES,Hap1 MTAP intact/deleted ratio ([1]; SDMA in-cell western),IC50 (MTAP-deleted cell line) [µM],Hap1 MTAP intact/deleted ratio ([1]; SDMA in-cell western assay)
0.005 to 0.05,0.075 to 0.125,> 0.05,,,,"C[C@H]1CC[C@H](c2ccc3sc(C4CCN(C)C(=O)C4)nc3c2)N(C(=O)C(=O)Nc2cncc3cn[nH]c23)C1 (single isomer, unassigned) [Compound 98]",B (“B” indicates an IC50 ratio greater than or equal to 15 fold but lower than 30 fold),0.1 to 1,
< 0.005,< 0.075,> 0.05,,,,"C[C@H]1CC[C@H](c2ccc3sc([C@H](C)N(C)C)nc3c2)N(C(=O)C(=O)Nc2cncc3cn[nH]c23)C1 (single isomer, unassigned) [Compound 153]",B (“B” indicates an IC50 ratio greater than or equal to 15 fold but lower than 30 fold),< 0.1,
> 0.05,> 0.125,> 0.05,,,,"CO[C@H]1C[C@@H](c2ccc(F)cc2)N(C(=O)C(=O)Nc2cnc(N)c3cn[nH]c23)C[C@@H]1C (single isomer, unassigned) [Compound 160]",C (“C” indicates an IC50 ratio of less than 15 fold),0.1 to 1,
< 0.005,< 0.075,0.005 to 0.05,,,,"C[C@@H]1C[C@@H](c2nc3cc([C@H]4CC[C@H](C)CN4C(=O)C(=O)Nc4cncc5cn[nH]c45)ccc3s2)CN(C)C1 (single isomer, unassigned) [Compound 162]",B (“B” indicates an IC50 ratio greater than or equal to 15 fold but lower than 30 fold),< 0.1,
,,,< 0.005,< 0.075,> 0.05,"CCN(CC)c1cccc(C2CCCCN2C(=O)C(=O)Nc2cnc(N)c3cn[nH]c23)c1 (single isomer, unassigned) [Compound 236]",,< 0.1,A (“A” indicates an IC50 ratio greater than or equal to 30 fold)
,,,> 0.05,> 0.125,> 0.05,"CC(C)n1nccc1[C@H]1CC[C@@H](C)CN1C(=O)C(=O)Nc1cnc(N)c2cn[nH]c12 (stereo in doubt) [Compound 234, N-(4-Amino-1H-pyrazolo[4,3-c]pyridin-7-yl)-2-oxo-2-[rac-(2R,5R)-2-(2-isopropylpyrazol-3-yl)-5-methyl-1-piperidyl]acetamide]",,0.1 to 1,B (“B” indicates an IC50 ratio greater than or equal to 15 fold but lower than 30 fold)
,,,< 0.005,< 0.075,0.005 to 0.05,"C[C@H]1CC[C@@H](c2ccnn2C)N(C(=O)C(=O)Nc2cnc(N)c3cn[nH]c23)C1 (stereo in doubt) [Compound 250, N-(4-Amino-1H-pyrazolo[4,3-c]pyridin-7-yl)-2-oxo-2-[rac-(2S,5S)-5-methyl-2-(2-methylpyrazol-3-yl)-1-piperidyl]acetamide]",,< 0.1,B (“B” indicates an IC50 ratio greater than or equal to 15 fold but lower than 30 fold)
,,,0.005 to 0.05,0.075 to 0.125,> 0.05,"CC(C)n1nccc1[C@@H]1CC[C@H](C)CN1C(=O)C(=O)Nc1cnc(N)c2cn[nH]c12 (stereo in doubt) [Compound 280, N-(4-Amino-1H-pyrazolo[4,3-c]pyridin-7-yl)-2-oxo-2-[rac-(2S,5S)-2-(2-isopropylpyrazol-3-yl)-5-methyl-1-piperidyl]acetamide]",,< 0.1,A (“A” indicates an IC50 ratio greater than or equal to 30 fold)
< 0.005,< 0.075,> 0.05,,,,"C[C@H]1CC[C@H](c2ccc3cn(C4CCN(C)CC4)nc3c2)N(C(=O)C(=O)Nc2cncc3c(N)nccc23)C1 [Compound 1, N-(8-amino-2,7-naphthyridin-4-yl)-2-oxo-2-[(2R,5S)-5-methyl-2-[2-(1-methyl-4-piperidyl)indazol-6-yl]-1-piperidyl]acetamide]",A (“A” indicates an IC50 ratio greater than or equal to 30 fold),< 0.1,
